Assay results reported in paper PMC4336329 (PLoS ONE, 2015).
About 2,200 (0.71%) of roughly 310,000 compounds showed an effect of 50% or more. The effect is printed as a negative number. The list shows a part of the results.

Biological target: human ether-à-go-go-related gene (hERG) potassium channel (human, UniProt Q12809)
Assay: primary screen, population patch clamp on CHO cells stably expressing hERG

Sequence of human ether-à-go-go-related gene (hERG) potassium channel (Q12809 whole entry, looked up): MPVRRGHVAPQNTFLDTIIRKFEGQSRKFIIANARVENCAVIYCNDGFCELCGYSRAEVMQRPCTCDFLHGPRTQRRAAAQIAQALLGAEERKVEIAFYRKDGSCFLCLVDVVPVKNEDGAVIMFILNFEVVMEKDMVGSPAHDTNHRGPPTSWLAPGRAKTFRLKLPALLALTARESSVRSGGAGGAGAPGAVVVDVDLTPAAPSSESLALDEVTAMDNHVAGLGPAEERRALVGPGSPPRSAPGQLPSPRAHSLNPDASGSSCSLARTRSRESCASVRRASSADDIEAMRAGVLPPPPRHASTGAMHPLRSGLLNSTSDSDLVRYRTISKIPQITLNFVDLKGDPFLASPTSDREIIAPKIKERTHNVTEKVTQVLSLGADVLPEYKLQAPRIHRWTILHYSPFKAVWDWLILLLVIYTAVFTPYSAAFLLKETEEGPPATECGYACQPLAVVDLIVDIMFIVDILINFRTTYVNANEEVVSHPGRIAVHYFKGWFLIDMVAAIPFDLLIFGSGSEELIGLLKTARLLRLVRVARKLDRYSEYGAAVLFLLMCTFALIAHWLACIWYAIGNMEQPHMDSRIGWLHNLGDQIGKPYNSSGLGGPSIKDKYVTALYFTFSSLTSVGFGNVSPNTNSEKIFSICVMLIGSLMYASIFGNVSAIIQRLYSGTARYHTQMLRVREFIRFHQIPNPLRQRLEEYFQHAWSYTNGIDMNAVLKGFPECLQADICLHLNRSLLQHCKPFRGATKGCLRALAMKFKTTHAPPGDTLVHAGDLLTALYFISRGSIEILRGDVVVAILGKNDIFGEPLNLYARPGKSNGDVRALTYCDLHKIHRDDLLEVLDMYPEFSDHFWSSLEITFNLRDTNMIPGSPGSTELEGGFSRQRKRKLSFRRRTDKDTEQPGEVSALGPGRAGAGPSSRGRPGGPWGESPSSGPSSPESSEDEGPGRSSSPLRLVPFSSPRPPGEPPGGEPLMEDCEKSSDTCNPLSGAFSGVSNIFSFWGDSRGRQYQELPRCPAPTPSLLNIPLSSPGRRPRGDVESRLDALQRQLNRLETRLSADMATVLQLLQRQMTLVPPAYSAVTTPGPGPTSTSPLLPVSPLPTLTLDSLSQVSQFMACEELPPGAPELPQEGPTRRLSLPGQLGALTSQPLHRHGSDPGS

| SMILES | hERG current change (%, negative = inhibition) at 1uM [%] |
| --- | --- |
| CCC(=O)N1CCN(c2ccc(NC(=O)c3ccccc3)cc2)CC1 | 5.42 |
| COc1ccc(C(=O)NCCCCc2ccccc2)cc1 | 5.08 |
| CCCCOc1ccc(C2CC(=O)N(C)C2=O)cc1 (stereo not drawn) | -1.98 |
| COc1ccc(C(=O)c2c3ccc([N+](=O)[O-])cc3[n+]([O-])n2CCCC(N)=O)cc1 | -5.98 |
| CCN(CC)S(=O)(=O)c1cccc(N=NC2=C(O)CCCC2=O)c1 | -2.57 |
| O=C(CCn1c(=O)oc2ccccc21)NCc1cccs1 | 17.2 |
| COc1ccc(C)cc1NC(=O)C(NC(=O)c1cc(OC)c(OC)c(OC)c1)C(C)C (stereo not drawn) | 13.5 |
| CCc1nnc(NC(=O)CSc2nc3c(cc2C#N)CCC3)s1 | 5.06 |
| CCOC(=O)CN1C(=O)C(=O)N(Cc2cccc(C)c2)C1=O | 11.8 |
| COc1ccc(COCC(O)CN2CCCC(C(F)(F)F)C2)cc1 (stereo not drawn) | 9.5 |
| Cc1cccc(OCCn2c(=S)[nH]c3ccccc32)c1 | 12.6 |
| Cc1ccc(-c2nc(N)sc2C)cc1 | -9.43 |
| COc1ccc(CC(=O)N2CCC3(CC2)NCCc2[nH]cnc23)cc1 | 13.5 |
| COc1ccc(N2C(=O)CC(Sc3nnc(-c4ccccc4F)n3C)C2=O)cc1 (stereo not drawn) | 11.3 |
| COc1ccc(-c2noc(N3CCC(C(=O)Nc4cc(OC)ccc4OC)CC3)n2)cc1 | 14 |
| Cc1ccc(NC(=O)CCN2C(=O)CSC2=O)cc1 | 1.74 |
| CCc1ccccc1NC(=S)N1CCNC(=O)C1CC(=O)OC (stereo not drawn) | 10.5 |
| O=C(CCc1ccccc1Cl)Nc1cccc(S(=O)(=O)N2CCCC2)c1 | -2.05 |
| COC(=O)c1sccc1NC(=O)c1ccccc1[N+](=O)[O-] | 7.08 |
| Clc1cccc(/C=N/N2CCN(Cc3ccccc3)CC2)c1 | 14.1 |
| Cc1nn(-c2ccccc2)c(Cl)c1/C=N/NC(=O)c1ccccc1NS(=O)(=O)c1cccs1 | 11.2 |
| CCn1c(CC(=O)Nc2ccc(C)cc2)n[nH]c1=S | 13.4 |
| COc1ccc(NC(=O)NCc2ccncc2)cc1 | 12.2 |

| SMILES | hERG current change (%, negative = inhibition) at 1uM [%] |
| --- | --- |
| CCCCN1CC[C@H]2C=CC[C@@H](C(=O)NCCc3ccccc3)[C@H]2C1=O | 8.74 |
| COCC(C)n1c(C)cc(C(=O)CSc2nnnn2-c2ccc(O)cc2)c1C (stereo not drawn) | 5.83 |
| CCn1cc(C(=O)N[C@@H](CCSC)C(=O)NC(C)(C)CO)c(=O)c2cc3c(cc21)OCO3 | 17.4 |
| CCOC(=O)N1CCN(S(=O)(=O)N2CCCC(C(=O)NCCCN3CCCCC3)C2)CC1 (stereo not drawn) | 8.07 |
| O=C(NCCc1cnc[nH]1)Nc1cccc(C(F)(F)F)c1 | 16 |
| C/C(=N\NC(=O)C1CCCC1)c1ccc(Cl)c(Cl)c1 | 8.97 |
| Cc1[nH]c2ccccc2c1C(=O)Cn1c(=O)oc2ccccc21 | 2.08 |
| CCOc1ccccc1NC(=O)CSc1nnc(NC(=O)c2ccco2)s1 | 20.2 |
| O=C(COC(=O)c1ccc(F)cc1Cl)NC1CCS(=O)(=O)C1 (stereo not drawn) | 4.8 |
| O=C(NCC(c1ccc(F)cc1)N1CCOCC1)c1ccco1 (stereo not drawn) | -5.93 |
| CCOC(=O)c1cccc(NC(=O)C(C)N2C(=O)c3ccccc3C2=O)c1 (stereo not drawn) | -3.2 |
| Cc1cc(C)n(C(CC(=O)N2CCc3ccccc3C2)C(=O)O)n1 (stereo not drawn) | -0.102 |
| COC(=O)C(C)n1cnc2c(nnn2-c2ccc(OC)cc2)c1=O (stereo not drawn) | 13.3 |
| COc1ccc(OC)c(S(=O)(=O)N2CCN(C(=O)CCc3ccccc3)CC2)c1 | 14.1 |
| COCCNC(=O)CSc1nc2sc(C)c(C)c2c(=O)n1-c1ccccc1 | 5.79 |
| CCCOc1ccc(/C=C/C(=O)NC2CCCCC2)cc1 | 12.6 |
| CN(C)c1nnnn1-c1cccc(Oc2ncc(C(F)(F)F)cc2Cl)c1 | 11 |
| Fc1ccc(N2CCN(c3nc(CN4CCOCC4)nc4scc(-c5ccccc5)c34)CC2)cc1 | 6.83 |
| COC(=O)c1ccccc1-c1ccc(/C=N/Nc2nc(N3CCCC3)nc(N3CCCC3)n2)o1 | 14 |
| CN(c1ccc(C(=O)NC2CC3CCC2C3)cc1)S(C)(=O)=O (stereo not drawn) | 3.94 |
| CN(NC1OC(=O)c2ccccc21)c1ccccc1[N+](=O)[O-] (stereo not drawn) | 12.4 |
| O=C(Cn1cnc2ccccc21)NCc1ccccc1 | 5.93 |
| CSc1cccc(NC(=O)OC2CCCCCCCCCCC2)c1 | 12.7 |

| SMILES | hERG current change (%, negative = inhibition) at 1uM [%] |
| --- | --- |
| CN(CCC#N)C(=O)Cn1nc(Cc2ccncc2)c2ccccc2c1=O | 7.06 |
| Cn1c(SCC(=O)Nc2cccc(NC(=O)c3cccs3)c2)nnc1-c1ccncc1 | -0.358 |
| CCOC(=O)c1sc2nc(CSc3nc4ccccc4n3CC)[nH]c(=O)c2c1C | 10.2 |
| COC(=O)c1nc(NC(=O)c2ccccc2)n[nH]1 | 9.34 |
| O=C1S/C(=C\C=C\c2ccco2)C(=O)N1c1ccccc1 | 7.64 |
| COC(=O)[C@H](CCSC)NC(=O)Nc1cccc(C)c1C | 11 |
| COCCN1C(=O)N(c2cccc(OC)c2)C(=O)C1CC(=O)Nc1cccc(F)c1 (stereo not drawn) | 15.8 |
| COc1ccc2c(Cl)c(C(=O)N/N=C3\CCCC(=O)C3)sc2c1 | 5.11 |
| Cc1sc2ncnc(Sc3nnnn3-c3ccccc3)c2c1C | 6.29 |
| Cn1c(=O)c2c(-c3ccccc3F)c3c(nc2n(C)c1=O)-c1ccccc1C3O (stereo not drawn) | -4.85 |
| COc1ccccc1NC(=O)C(C)N1C(=O)c2ccccc2C1=O (stereo not drawn) | 19.1 |
| Cc1ccnc(NC(=O)c2ccc(C(=O)c3ccccc3)cc2)c1 | 5.73 |
| Cn1cnnc1Sc1cc(N2CCN(S(=O)(=O)c3ccccc3)CC2)ccc1[N+](=O)[O-] | -5.16 |
| CC(=O)O/N=C/c1c(NCc2ccccc2)nc2c(C)cccn2c1=O | 2.4 |
| Cc1ccccc1NC(=O)/C(=C/c1ccco1)c1ccccc1 | 11 |
| CC(C)(C)c1ccc(OCC(=O)Nc2ccc(C(=O)Nc3ccccc3C(=O)O)cc2)cc1 | 5.21 |
| CC(C)c1ccc(-c2nnc(SCC(=O)NC3CC3)n2C)cc1 | 4.13 |
| COCCn1c(Cc2ccccc2)nnc1SC(C)C(=O)NC1CC1 (stereo not drawn) | -2.23 |
| COc1ccccc1CP(=O)(c1ccccc1)c1ccccc1 | 1.95 |
| COc1cccc(/C=C(\CC(=O)O)c2nc3ccccc3s2)c1 | 15 |
| O=S(=O)(Nc1nc2ccccc2nc1Cl)c1ccc(F)cc1 | 8.24 |
| O=C(CSc1nnnn1-c1ccc2c(c1)OCO2)NCc1cccs1 | -1.56 |
| OCCC1CN(Cc2ccon2)CCN1CCc1ccccc1 (stereo not drawn) | 5.92 |

| SMILES | hERG current change (%, negative = inhibition) at 1uM [%] |
| --- | --- |
| O=C(O)C(=O)O.OC1(c2ccccc2)CCNC2CCCCC21 (stereo not drawn) | 7.42 |
| Cc1ccc(NC(=O)COC(=O)COc2ccc3ccc(=O)oc3c2)cc1[N+](=O)[O-] | -0.0259 |
| COc1ccc2cc(Br)ccc2c1CC(=O)NC1CC(C)(C)NC(C)(C)C1 | -2.65 |
| CCOc1ccc(NC(=O)NCc2cccn2C)cc1 | 10.4 |
| Cc1cccc(C(=O)NCC(=O)OCc2cc(=O)n3ccsc3n2)c1 | 11.1 |
| COc1ccc(N2CC(C(=O)Nc3ccncc3)CC2=O)cc1 (stereo not drawn) | 17.1 |
| CCOC(=O)C1C(c2ccc(Cl)cc2)NC(=S)NC1(O)C(F)(F)F (stereo not drawn) | 12.3 |
| Cc1ccc2nc3nc(NCC4CCCO4)c(C(=O)NC4CCCCC4)cc3c(=O)n2c1 (stereo not drawn) | -76.8 |
| CC(=O)c1cc2c(cc1NC(=O)CN1CCOCC1)OCO2 | 4.92 |
| Cc1cc(C(=O)N/N=C\c2ccc(COc3ccc([N+](=O)[O-])cc3)o2)ccc1[N+](=O)[O-] | 10.9 |
| O=C(c1cccs1)N1CCN(Cc2ccc3c(c2)OCO3)CC1 | -4.34 |
| COc1ccc(-c2cc(CS(=O)(=O)c3ccccc3)on2)cc1 | -3.98 |
| COc1cc(C(C#N)N2CCCCC2)ccc1O (stereo not drawn) | 12.1 |
| CN1CCN(CC(O)COCCOc2ccc(Br)cc2)CC1.Cl (stereo not drawn) | 2.93 |
| CCOC(=O)c1c(-c2ccc(C)o2)csc1NC(=O)CSc1nnnn1-c1ccccc1 | 0.534 |
| COc1ccc(/C(C)=N/NC(=O)C2C3CCCCC32)c(OC)c1 (stereo not drawn) | 6.42 |
| Cn1c(=O)c2ncn(CC(=O)Nc3cccc(-c4nc5ccccc5s4)c3)c2n(C)c1=O | 1.23 |
| CCN(CC)S(=O)(=O)c1ccc(F)c(C(=O)NCCC(C)C)c1 | -4.04 |
| COc1ccc(N(C(=O)CNC(=O)c2ccco2)C(C(=O)NCC2CCCO2)c2ccccc2)cc1Cl (stereo not drawn) | 15.4 |
| CCc1ccccc1NC(=O)c1ccc2c(O)c(S(=O)(=O)c3ccc(OC)cc3)c(=O)[nH]c2c1 | 17.2 |
| O=C(O)C1CC=CCC1C(=O)Nc1ccccc1 (stereo not drawn) | -5.85 |
